# Data as given in PubChem BioAssay AID485344 (National Center for Advancing Translational Sciences (NCATS), 2010).
# Screen size: about 340,000 compounds; about 6,900 (2%) were called active. Cut-off read from the data, not from the text of the source: active = inhibition above about 30%; inactive = below that, where a call was filed. This is a selection; strong and weak results do not stand in their true shares. Entries without a call were filed so in the source.
# Biological target: D(2) dopamine receptor (Homo sapiens) (UniProt P14416)
# Assay: HTS Assay for Allosteric Antagonists of the Human D2 Dopamine Receptor: Primary Screen for Antagonists; note: 0% is about no effect
# Details: HEK293 TREx D2 cells, calcium flux, dopamine EC80; at 10 µM; stronger effect = higher value
# Summary of the method: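 Measurement of antagonist activity uses fluorescent calcium dye in inducible HEK293 T-REx D2 cells: 10 s baseline, compound addition with 180 s read, EC80 dopamine addition with a further 180 s read.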
# Sequence of UniProt P14416 (P14416 whole entry, looked up): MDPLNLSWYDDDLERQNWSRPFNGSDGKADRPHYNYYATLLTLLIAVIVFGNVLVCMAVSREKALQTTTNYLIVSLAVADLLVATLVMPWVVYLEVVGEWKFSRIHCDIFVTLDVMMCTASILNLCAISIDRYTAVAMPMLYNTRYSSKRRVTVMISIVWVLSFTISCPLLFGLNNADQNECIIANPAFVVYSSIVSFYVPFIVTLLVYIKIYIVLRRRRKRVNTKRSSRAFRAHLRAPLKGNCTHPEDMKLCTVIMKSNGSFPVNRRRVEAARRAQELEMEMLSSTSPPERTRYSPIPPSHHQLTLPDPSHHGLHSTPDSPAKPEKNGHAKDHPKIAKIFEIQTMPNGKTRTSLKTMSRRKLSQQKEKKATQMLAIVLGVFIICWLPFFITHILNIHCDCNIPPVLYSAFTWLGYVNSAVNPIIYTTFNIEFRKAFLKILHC
row,SMILES,inhibition
1,Cc1cccc(NC(=O)Cn2cnc(S(=O)(=O)N3CCCC3)c2)c1C,11%
2,COC(=O)c1ccc(Cl)cc1NC(=O)NCc1c(-n2cccc2)sc2c1CCCC2,-2.29%
3,O=C(Nc1cccc2cccnc12)c1cccc2ccccc12,0.138%
4,CCOC(=O)c1ccc(NC(=O)c2csc3c2CCCC3)cc1,3.7%
5,CCOc1ccc(C(=O)Nc2ccc(C(=O)OCc3cc(=O)n4ccsc4n3)cc2)cc1,9.01%
6,COc1cccc(N2CCN(C(=O)c3cc4c(=O)n(Cc5cccs5)ccc4nc3C)CC2)c1,12.1%
7,C=CCOc1ccccc1CN1CCC(Cc2ccccc2)CC1,active: 30.7%
8,Cc1ccc(CNC(=O)Cn2ncc3c([nH]c4ccc(C)cc43)c2=O)cc1,4.28%
9,CSc1ncc(C(=O)NCc2ccc(Cl)cc2)c(C(F)(F)F)n1,3.98%
10,CCn1c(CN2CCCCC2)nc2cc(NC(=O)c3ccccc3[N+](=O)[O-])ccc21,10.8%
11,CCOC(=O)CSc1nc(-c2ccccc2)cc(C(F)(F)F)c1C#N,27.2%
12,Cc1ccc(NC(=O)c2c(C(=O)Nc3ccccc3)sc3nc(C)cc(=O)n23)c(C)c1,1.98%
13,Cc1nn(-c2ccccc2)c(OC(=O)c2ccc(F)cc2)c1S(=O)(=O)c1ccccc1,4.99%
14,CCN(C(=O)CCNC(=O)Cn1cnc2ccccc2c1=O)c1cccc(Cl)c1,-7.08%
15,COc1cccc(NC(=O)C(=O)NCCc2csc(-c3ccc(C)cc3)n2)c1,-10.1%
16,CCCn1cc(S(=O)(=O)c2ccc(C)cc2)c(=O)c2cc(OC)c(OC)cc21,-6.75%
17,COc1ccc(C2=C(C)C(N3CCC(C(=O)Nc4cc(C)ccc4C)CC3)=NS2(=O)=O)cc1,-8.29%
18,O=C(Nc1ccccc1-c1nnn(CC(=O)N2CCCc3ccccc32)n1)c1ccc(Cl)cc1,active: 47.4%
19,Cc1ccc(OCC(=O)Nc2cc(-c3nc4ccccc4[nH]3)ccc2C)c(C)c1,-9.35%
20,CC(=O)c1ccc(NC(=O)c2ccc(NC(=O)CCS(=O)(=O)c3cccs3)cc2)cc1,-10.2%
21,Cc1cccc(Cn2cc(S(=O)(=O)c3ccc(Cl)cc3)c(=O)c3cc4c(cc32)OCO4)c1,9.06%
22,Cn1c(=O)c2c(SCC(=O)NCC3CCCO3)nc(-c3cccc(F)c3)nc2n(C)c1=O (stereo not given),3.44%
23,Cc1cccc(OCCSc2nc3ccc(NC(=O)c4cccs4)cc3s2)c1,-23.4%
24,CS(=O)(=O)N1CCC(n2c(C(F)(F)F)nc3cccnc32)CC1,-2.51%

row,SMILES,inhibition
1,Cc1cccc(C)c1Nc1c(-c2cccs2)nc2ncccn12,10.1%
2,CCCCC(=O)Nc1cc2nn(-c3ccc(OCC)cc3)nc2cc1C,-12.5%
3,CCc1nn(Cc2cccc(F)c2)c(=O)c2cc3cc(C)ccc3n12,3.24%
4,Cc1ccc(-n2ncc(C(=O)N3CCN(c4ccccn4)CC3)c2C2CCN(C(=O)OC(C)(C)C)CC2)cc1,-5.59%
5,CCC(C)NC(=O)Cn1c(=O)n(-c2ccc(Cl)c(Cl)c2)c(=O)c2c(C)c(C(=O)N(CC)CC)sc21 (stereo not given),-21.5%
6,COc1ccc(NS(=O)(=O)c2ccc(C)c(C(=O)N3CCC3)c2)cc1,active: 48.9%
7,COC(=O)c1ccccc1NC(=O)Cn1c(=O)nc(-c2ccccc2)c2cc(Cl)ccc21,0.6%
8,Cc1ccc(NC(=O)c2cc(S(=O)(=O)N3CCCc4ccccc43)ccc2F)cc1F,-20.2%
9,O=C(C1CC1)N1CCc2cc(Br)cc(S(=O)(=O)N3CCN(c4cccc(Cl)c4)CC3)c21,-1.87%
10,Cc1ccc2nc(COc3cccc(NC(=O)COc4ccccc4F)c3)cc(=O)n2c1,7.22%
11,CCOC(=O)c1cc(-c2ccccc2)n(-c2cccc(C(=O)Nc3cccc(C)c3)c2)c1C,6.16%
12,Cc1cccc(OCC(=O)OCc2cc(=O)n3nc(-c4cccs4)sc3n2)c1,2.52%
13,O=C(Nc1ccc2nc(SCC(=O)N3CCCC3)sc2c1)c1ccc(Br)cc1,3.98%
14,Cc1ccc(CSc2ccc3nnc(CCNS(=O)(=O)c4ccc(C)cc4)n3n2)cc1,-13.3%
15,O=C(COC(=O)CNC(=O)c1ccccc1)Nc1ccc(F)c([N+](=O)[O-])c1,active: 34.4%
16,CCOC(=O)CC(=O)CSc1nc2ccccc2c(=O)n1-c1ccc(C(=O)NCCOC)cc1,-7.71%
17,COC(=O)c1ccc(C(=O)OC)c(NC(=O)N2CC3CCCN3c3ccccc32)c1 (stereo not given),6.17%
18,CCOc1ccccc1NC(=O)CSc1nc2c([nH]c3ccccc32)c(=O)n1-c1ccccc1,-27.3%
19,CCOC(=O)c1c(-c2ccc(C)cc2)csc1NC(=O)c1cc(=O)c2cc(Cl)ccc2o1,9.08%
20,O=C(CC1NCCNC1=O)Nc1ccccc1F (stereo not given),18.7%
21,Cc1ccc(Cl)cc1N1CCN(C(=O)c2cc3c(=O)n(C)c4ccccc4c3s2)CC1,-17%
22,Cc1ccc(OCc2nc(-c3ccc(C(=O)N4CCN(c5cc(Cl)ccc5C)CC4)cc3)oc2C)cc1,12.8%
23,O=S(=O)(c1ccccc1)c1nc(-c2cccs2)oc1SCc1ccccc1Cl,-5.73%
24,CCOc1ccc(Cn2c(CNS(=O)(=O)c3c(C)cc(C)cc3C)nc3cccnc32)cc1,5.77%

row,SMILES,inhibition
1,CCC(C)n1c(SCc2ccc(C(C)(C)C)cc2)nc2ccsc2c1=O (stereo not given),3.4%
2,CCn1c(=O)sc2cc(NC(=O)c3cccc(OC)c3)ccc21,-1.8%
3,CCN1CCN(c2nnc(-n3cccc3C(=O)Nc3cccc(OC)c3)s2)CC1,14%
4,O=C(Cn1ccn(-c2ccc(F)c(F)c2)c(=O)c1=O)c1ccc(F)cc1,1.83%
5,CC(C)c1nn2c(=O)cc(COC(=O)CNC(=O)c3ccccc3Cl)nc2s1,7.82%
6,Nc1ccc2oc(CCc3ccccc3)nc2c1,active: 37.9%
7,CC(=O)c1ccc(NC(=O)CCCc2nc(-c3cccc(C)c3)no2)cc1,-19.8%
8,O=C(Cn1cc(C(=O)C2CC2)c2ccccc21)Nc1ccc(Br)cc1,-3.94%
9,CCC1CCCCN1CCCNC(=O)c1ccc2c(c1)N(Cc1ccc(Cl)cc1)C(=O)c1ccccc1S2(=O)=O (stereo not given),-15.2%
10,COc1ccccc1N1CCN(c2ccc(-c3nc(-c4ccccc4)no3)cc2[N+](=O)[O-])CC1,8.61%
11,COc1ccc(-c2cc(N)n(S(=O)(=O)c3c(F)c(F)c(F)c(F)c3F)n2)cc1OC,active: 34.9%
12,O=C(CN1C(=O)CSc2ccc(S(=O)(=O)N3CCCC3)cc21)NCc1ccc(Cl)cc1,-6.65%
13,COc1ccc(NC(=O)CN2C(=O)COc3ccc(S(=O)(=O)N4CCCCC4)cc32)cc1Cl,-27%
14,COc1ccc(NC(=O)c2oc3ccccc3c2NC(=O)Cc2cccs2)cc1,-12.4%
15,COc1ccc(C2Nc3ccccc3C(=O)N2NS(=O)(=O)c2ccccc2)cc1 (stereo not given),active: 39%
16,COc1ccc(C)cc1NC(=O)N1CCN(c2cc(-c3noc(C)n3)ccc2C)CC1,-14.7%
17,Cc1c(C)n(Cc2ccc(F)cc2)c2ccc(C(=O)Nc3ccc(Cl)cc3)cc12,7.63%
18,O=C(CC1C(=O)N(c2ccccc2)C(=O)N1Cc1ccc2c(c1)OCO2)Nc1ccccc1 (stereo not given),0.481%
19,O=C1CC(c2nnc(Cc3ccccc3Cl)o2)CN1c1ccccc1 (stereo not given),1.31%
20,Cc1ccc(-c2cc3c(n2-c2ccccc2F)CC(C)(C)CC3=O)cc1,8.63%
21,O=S(=O)(Cc1ccccc1)Nn1cnnc1,active: 31.4%
22,CCOC(=O)c1ccc(CN(Cc2ccccc2C)S(=O)(=O)c2ccc(F)c(C(=O)Nc3cccc(OC)c3)c2)cc1,-4.46%
23,OC(COCc1ccc(Cl)cc1)CN1CCN(c2ccccn2)CC1 (stereo not given),active: 83.9%
24,Cc1cccc(OCC(=O)Nc2ccc(Cl)c(-c3nc4ccccc4[nH]3)c2)c1,2.93%

row,SMILES,inhibition
1,CCc1ccccc1NC(=O)CSc1ncc(S(=O)(=O)c2ccccc2)c(=O)[nH]1,-10.7%
2,CCN1CCN(Cc2c(O)ccc3oc(C)c(C(=O)Nc4ccc(C)cc4C)c23)CC1,-0.0286%
3,CC1=C(c2ccc(C)c(C)c2)S(=O)(=O)N=C1N1CCC(C(=O)Nc2cccc(F)c2)CC1,8.1%
4,COc1ccccc1NC(=O)Cn1c(=O)n(-c2cccc(Cl)c2)c(=O)c2c1c1cc(C)ccc1n2C,9.06%
5,COc1cccc(NC(=O)CSc2nnc(-c3cccs3)o2)c1,0.0224%
6,CN1CCc2nc3sc(C(=O)Nc4cccc(C#N)c4)c(N)c3cc2C1,11.9%
7,Cc1cc(C)cc(Nc2nnc(-n3nc(C)cc3C)c3ccccc23)c1,-1.36%
8,CCCOc1ccc(C2c3c(-c4ccccc4O)n[nH]c3C(=O)N2CCCOCC)cc1OCC (stereo not given),15.8%
9,O=C(Nc1cccc(F)c1)c1cccc2c1C(=O)N(C1CCCCC1)C2,-5.77%
10,CCC(=O)N1CCCc2cc(S(=O)(=O)N3CCC(C(=O)Nc4ccccc4CC)CC3)ccc21,10.3%
11,Cc1ccccc1Nc1cc(C(=O)NCCc2ccc(Cl)cc2)c2ccccc2n1,21.1%
12,Cc1ccc2c(CC(=O)N(Cc3ccc(Cl)cc3)Cc3ccco3)coc2c1,5.56%
13,COc1cc(C2c3c(oc4ccc(C)cc4c3=O)C(=O)N2Cc2ccccc2)ccc1O (stereo not given),14.6%
14,Cc1oc(-c2ccc(Cl)cc2)nc1CSCC(=O)NCc1ccccc1Cl,13.2%
15,CCC(=O)N1CCc2cc(Br)cc(S(=O)(=O)N3CCCC(C(=O)NCc4ccc(OC)cc4)C3)c21 (stereo not given),-1.5%
16,CC(CNC(=O)Cn1c(-c2cccs2)cc2ccccc21)c1ccccc1 (stereo not given),5.66%
17,COC(=O)Cc1c(C)c2ccc3c(c2oc1=O)CN(Cc1ccccc1OC)CO3,-2.93%
18,COc1cccc(-c2nc(CS(=O)(=O)CC(=O)NCCc3ccc(OC)c(OC)c3)c(C)o2)c1,-2.93%
19,Cc1ccc(C(=O)Nc2nc(-c3nnn(-c4cccc(Cl)c4C)c3C)ns2)cc1C,-12.6%
20,CCOC(=O)C1=C(CN2CCN(c3cccc(OC)c3)CC2)NC(=O)NC1c1ccc(OC)cc1 (stereo not given),-3.3%
21,COc1ccc(NS(=O)(=O)c2ccc3c(c2)CC(C)N3C(C)=O)c(OC)c1 (stereo not given),-4.4%
22,Cn1c(=O)c2c(n3ncnc13)NC(=O)CC2c1cccc(F)c1 (stereo not given),-9.04%
23,Cc1ccc(-n2c(=O)c3c(cnn3C)n(CC(=O)Nc3c(C)cccc3C)c2=O)cc1,-11.7%
